± gives the standard deviation of the averaged measurements. Laboratory Escherichia coli strains with one amino-acid change in an essential protein, pooled on minimal glucose agar with carbenicillin or gentamicin at twice the control MIC (plus kanamycin and chloramphenicol for the plasmids), 48 h. Fold change of barcode share against drug-free plates; higher = less susceptible. Active = above 20 in both replicates (the paper's putatively resistant). '<' = one read or none on drug, '>' = one read or none on a drug-free plate. Shares are relative, so most strains fall below 1 when a few take over. Listed are strains with at least 15 reads on both drug-free plates, and hits; most hits rest on fewer reference reads. Replicate rank correlation about 0.5. Edits are read from barcodes. Some results are limits rather than exact numbers.

The values that follow come from the supplement of paper PMC11876631.

First the molecules themselves.
B1: hisI M19A (protein)
chain: MLTEQQRRELDWEKTDGLAPVIVQHAVSGEVLMLGYMNPEALDKTLESGKVTFFSRTKQRLWTKGETSGNFLNVVSIAPDCDNDTLLVLANPIGPTCHKGTSSCFGDTAHQWLFLYQLEQLLAERKSADPETSYTAKLYASGTKRIAQKVGEEGVETALAATVHDRFELTNEASDLMYHLLVLLQDQGLDLTTVIENLRKRHQ
B2: hisI M19W (protein)
chain: MLTEQQRRELDWEKTDGLWPVIVQHAVSGEVLMLGYMNPEALDKTLESGKVTFFSRTKQRLWTKGETSGNFLNVVSIAPDCDNDTLLVLANPIGPTCHKGTSSCFGDTAHQWLFLYQLEQLLAERKSADPETSYTAKLYASGTKRIAQKVGEEGVETALAATVHDRFELTNEASDLMYHLLVLLQDQGLDLTTVIENLRKRHQ
B3: hisI M19P (protein)
chain: MLTEQQRRELDWEKTDGLPPVIVQHAVSGEVLMLGYMNPEALDKTLESGKVTFFSRTKQRLWTKGETSGNFLNVVSIAPDCDNDTLLVLANPIGPTCHKGTSSCFGDTAHQWLFLYQLEQLLAERKSADPETSYTAKLYASGTKRIAQKVGEEGVETALAATVHDRFELTNEASDLMYHLLVLLQDQGLDLTTVIENLRKRHQ
B4: hisI V21Q (protein)
chain: MLTEQQRRELDWEKTDGLMPQIVQHAVSGEVLMLGYMNPEALDKTLESGKVTFFSRTKQRLWTKGETSGNFLNVVSIAPDCDNDTLLVLANPIGPTCHKGTSSCFGDTAHQWLFLYQLEQLLAERKSADPETSYTAKLYASGTKRIAQKVGEEGVETALAATVHDRFELTNEASDLMYHLLVLLQDQGLDLTTVIENLRKRHQ
B5: hisI M19Q (protein)
chain: MLTEQQRRELDWEKTDGLQPVIVQHAVSGEVLMLGYMNPEALDKTLESGKVTFFSRTKQRLWTKGETSGNFLNVVSIAPDCDNDTLLVLANPIGPTCHKGTSSCFGDTAHQWLFLYQLEQLLAERKSADPETSYTAKLYASGTKRIAQKVGEEGVETALAATVHDRFELTNEASDLMYHLLVLLQDQGLDLTTVIENLRKRHQ
B6: hisI I22P (protein)
chain: MLTEQQRRELDWEKTDGLMPVPVQHAVSGEVLMLGYMNPEALDKTLESGKVTFFSRTKQRLWTKGETSGNFLNVVSIAPDCDNDTLLVLANPIGPTCHKGTSSCFGDTAHQWLFLYQLEQLLAERKSADPETSYTAKLYASGTKRIAQKVGEEGVETALAATVHDRFELTNEASDLMYHLLVLLQDQGLDLTTVIENLRKRHQ
B7: hisI V21A (protein)
chain: MLTEQQRRELDWEKTDGLMPAIVQHAVSGEVLMLGYMNPEALDKTLESGKVTFFSRTKQRLWTKGETSGNFLNVVSIAPDCDNDTLLVLANPIGPTCHKGTSSCFGDTAHQWLFLYQLEQLLAERKSADPETSYTAKLYASGTKRIAQKVGEEGVETALAATVHDRFELTNEASDLMYHLLVLLQDQGLDLTTVIENLRKRHQ
B8: hisI M19D (protein)
chain: MLTEQQRRELDWEKTDGLDPVIVQHAVSGEVLMLGYMNPEALDKTLESGKVTFFSRTKQRLWTKGETSGNFLNVVSIAPDCDNDTLLVLANPIGPTCHKGTSSCFGDTAHQWLFLYQLEQLLAERKSADPETSYTAKLYASGTKRIAQKVGEEGVETALAATVHDRFELTNEASDLMYHLLVLLQDQGLDLTTVIENLRKRHQ
B9: hisI I22A (protein)
chain: MLTEQQRRELDWEKTDGLMPVAVQHAVSGEVLMLGYMNPEALDKTLESGKVTFFSRTKQRLWTKGETSGNFLNVVSIAPDCDNDTLLVLANPIGPTCHKGTSSCFGDTAHQWLFLYQLEQLLAERKSADPETSYTAKLYASGTKRIAQKVGEEGVETALAATVHDRFELTNEASDLMYHLLVLLQDQGLDLTTVIENLRKRHQ
B10: hisI I22W (protein)
chain: MLTEQQRRELDWEKTDGLMPVWVQHAVSGEVLMLGYMNPEALDKTLESGKVTFFSRTKQRLWTKGETSGNFLNVVSIAPDCDNDTLLVLANPIGPTCHKGTSSCFGDTAHQWLFLYQLEQLLAERKSADPETSYTAKLYASGTKRIAQKVGEEGVETALAATVHDRFELTNEASDLMYHLLVLLQDQGLDLTTVIENLRKRHQ
B11: hisI I22Q (protein)
chain: MLTEQQRRELDWEKTDGLMPVQVQHAVSGEVLMLGYMNPEALDKTLESGKVTFFSRTKQRLWTKGETSGNFLNVVSIAPDCDNDTLLVLANPIGPTCHKGTSSCFGDTAHQWLFLYQLEQLLAERKSADPETSYTAKLYASGTKRIAQKVGEEGVETALAATVHDRFELTNEASDLMYHLLVLLQDQGLDLTTVIENLRKRHQ
B12: hisH L6W (protein)
chain: MNVVIWDTGCANLNSVKSAIARHGYEPKVSRDPDVVLLADKLFLPGVGTAQAAMDQVRERELFDLIKACTQPVLGICLGMQLLGRRSEESNGVDLLGIIDEDVPKMTDFGLPLPHMGWNRVYPQAGNRLFQGIEDGAYFYFVHSYAMPVNPWTIAQCNYGEPFTAAVQKDNFYGVQFHPERSGAAGAKLLKNFLEM
B13: hisH L6Q (protein)
chain: MNVVIQDTGCANLNSVKSAIARHGYEPKVSRDPDVVLLADKLFLPGVGTAQAAMDQVRERELFDLIKACTQPVLGICLGMQLLGRRSEESNGVDLLGIIDEDVPKMTDFGLPLPHMGWNRVYPQAGNRLFQGIEDGAYFYFVHSYAMPVNPWTIAQCNYGEPFTAAVQKDNFYGVQFHPERSGAAGAKLLKNFLEM
B14: hisH V16A (protein)
chain: MNVVILDTGCANLNSAKSAIARHGYEPKVSRDPDVVLLADKLFLPGVGTAQAAMDQVRERELFDLIKACTQPVLGICLGMQLLGRRSEESNGVDLLGIIDEDVPKMTDFGLPLPHMGWNRVYPQAGNRLFQGIEDGAYFYFVHSYAMPVNPWTIAQCNYGEPFTAAVQKDNFYGVQFHPERSGAAGAKLLKNFLEM
B15: hisH L6P (protein)
chain: MNVVIPDTGCANLNSVKSAIARHGYEPKVSRDPDVVLLADKLFLPGVGTAQAAMDQVRERELFDLIKACTQPVLGICLGMQLLGRRSEESNGVDLLGIIDEDVPKMTDFGLPLPHMGWNRVYPQAGNRLFQGIEDGAYFYFVHSYAMPVNPWTIAQCNYGEPFTAAVQKDNFYGVQFHPERSGAAGAKLLKNFLEM
B16: hisH V16W (protein)
chain: MNVVILDTGCANLNSWKSAIARHGYEPKVSRDPDVVLLADKLFLPGVGTAQAAMDQVRERELFDLIKACTQPVLGICLGMQLLGRRSEESNGVDLLGIIDEDVPKMTDFGLPLPHMGWNRVYPQAGNRLFQGIEDGAYFYFVHSYAMPVNPWTIAQCNYGEPFTAAVQKDNFYGVQFHPERSGAAGAKLLKNFLEM
B17: argH W335A (protein)
chain: MALWGGRFTQAADQRFKQFNDSLRFDYRLAEQDIVGSVAWSKALVTVGVLTAEEQAQLEEALNVLLEDVRARPQQILESDAEDIHSWVEGKLIDKVGQLGKKLHTGRSRNDQVATDLKLWCKDTVSELLTANRQLQSALVETAQNNQDAVMPGYTHLQRAQPVTFAHWCLAYVEMLARDESRLQDALKRLDVSPLGCGALAGTAYEIDREQLAGWLGFASATRNSLDSVSDRDHVLELLSAAAIGMVHLSRFAEDLIFFNTGEAGFVELSDRVTSGSSLMPQKKNPDALELIRGKCGRVQGALTGMMMTLKGLPLAYNKDMQEDKEGLFDALDTALDCLHMAALVLDGIQVKRPRCQEAAQQGYANATELADYLVAKGVPFREAHHIVGEAVVEAIRQGKPLEDLPLSELQKFSQVIDEDVYPILSLQSCLDKRAAKGGVSPQQVAQAIAFAQARLG
B18: argH W335Q (protein)
chain: MALWGGRFTQAADQRFKQFNDSLRFDYRLAEQDIVGSVAWSKALVTVGVLTAEEQAQLEEALNVLLEDVRARPQQILESDAEDIHSWVEGKLIDKVGQLGKKLHTGRSRNDQVATDLKLWCKDTVSELLTANRQLQSALVETAQNNQDAVMPGYTHLQRAQPVTFAHWCLAYVEMLARDESRLQDALKRLDVSPLGCGALAGTAYEIDREQLAGWLGFASATRNSLDSVSDRDHVLELLSAAAIGMVHLSRFAEDLIFFNTGEAGFVELSDRVTSGSSLMPQKKNPDALELIRGKCGRVQGALTGMMMTLKGLPLAYNKDMQEDKEGLFDALDTQLDCLHMAALVLDGIQVKRPRCQEAAQQGYANATELADYLVAKGVPFREAHHIVGEAVVEAIRQGKPLEDLPLSELQKFSQVIDEDVYPILSLQSCLDKRAAKGGVSPQQVAQAIAFAQARLG

One data set concerns the target Escherichia coli (laboratory strain). Briefly: barcode share on antibiotic plates over drug-free plates; higher = less susceptible. The following applies: antibiotic: carbenicillin; 2× MIC (3.1 µg/mL). The protocol: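 A pool of E. coli strains, each edited to carry one amino-acid change in an essential protein, was grown for 48 h on minimal glucose agar with or without antibiotic; strain barcodes were sequenced; mean of two replicates.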
On to B1, for which the “fold change of barcode share” value was found to be 0.432 ± 0.033. Regarding B2, the “fold change of barcode share” value turned out to be 0.705 ± 0.2. Consider B3, for which the “fold change of barcode share” value amounted to 0.733 ± 0.044. With B4, the “fold change of barcode share” value came to 0.4888 ± 0.0027. In the case of B5, the “fold change of barcode share” value amounted to 0.6661 ± 0.00073.

For the protein B6, the “fold change of barcode share” value stood at 0.71 ± 0.17. For the protein B7, the “fold change of barcode share” value was found to be 2.89 ± 1.5. On the same count and under the same terms, the result for B8 reads 0.967 ± 0.1; that for B9, 0.656 ± 0.22; that for B10, 0.656 ± 0.05. As for B11, the “fold change of barcode share” value was determined as 0.718 ± 0.19. The same measure, in the same setting: the result for B12 reads 1.16 ± 0.17; that for B13, 6.45 ± 3.5. Turning to B14, the “fold change of barcode share” value was 0.867 ± 0.24. B15: the “fold change of barcode share” value is 22.7 ± 9.8. In the case of B16, the “fold change of barcode share” value is 45.8 [active]. Take B17: the “fold change of barcode share” value was found to be 0.727 ± 0.092. For the protein B18, the “fold change of barcode share” value was determined as 0.565 ± 0.05.

The data set is the same for the next values; noted with them: antibiotic: gentamicin; 2× MIC (MIC 0.45 µg/mL).
With B1, the “fold change of barcode share” value is less than 0.0038. For the protein B2, the “fold change of barcode share” value stood at 0.0125 ± 0.012. B3: the “fold change of barcode share” value is less than 0.00552. In the case of B4, the “fold change of barcode share” value was 0.0496 ± 0.047. Same read-out and setting: the result for B5 reads 0.0161 ± 0.0076. Regarding B6, the “fold change of barcode share” value is less than 0.00718. For the protein B7, the “fold change of barcode share” value was less than 0.00404. B8: the “fold change of barcode share” value was determined as 0.0908 ± 0.095. On the same count and under the same terms, the result for B9 reads 0.0147 ± 0.0047; that for B10, 0.0176 ± 0.018.

Turning to B11, the “fold change of barcode share” value was less than 0.00405. Consider B12, for which the “fold change of barcode share” value is 0.00974 ± 0.0026. B13: the “fold change of barcode share” value is 0.0198 ± 0.0026.

Consider B14, for which the “fold change of barcode share” value worked out at 0.00818 ± 0.0087. Same read-out and setting: for B15 the value was less than 0.0156; for B17, 0.199 ± 0.27; for B18, 0.181 ± 0.25.
